From US11685745B2, “Substituted benzoxazole and benzofuran compounds as PDE7 inhibitors” (Dart NeuroScience, LLC, priority 2017, dated 2023)

Target: N-terminal truncated recombinant human PDE7B enzyme (Homo sapiens (Human), UniProt Q9NP56)
Experiment: biochemical

SMILES	IC50 [µM]
O=C1Nc2c(Cl)cc3cc(CN4CCN5CCC[C@H]5C4)oc3c2C2(CCCCC2)N1 [Example 477, 2′-[(8aS)-Octahydropyrrolo[1,2-a]piperazin-2-ylmethyl]-5′-chloro-7′,8′-dihydro-6′H-spiro[cyclohexane-1,9′-furo[2,3-f]quinazoline]-7′-one]	0.1 to 1
O=C1Nc2c(Cl)cc3nc(C(=O)N4CCN5CCC[C@@H]5C4)oc3c2C2(CCCCC2)N1 [Example 197, 2-[(8aR)-octahydropyrrolo[1,2-a]piperazine-2-carbonyl]-5-chloro-7,8-dihydro-6H-spiro[[1,3]oxazolo[5,4-f]quinazoline-9,1′-cyclohexane]-7-one]	0.01 to 0.1
O=C1Nc2c(Cl)cc3cc(C(=O)NC4CCN(c5cccnc5)CC4)oc3c2C2(CCCCC2)N1 [Example 350, 5′-Chloro-7′-oxo-N-(1-(pyridin-3-yl)piperidin-4-yl)-7′,8′-dihydro-6′H-spiro[cyclohexane-1,9′-furo[2,3-f]quinazoline]-2′-carboxamide]	0.01 to 0.1
O=C1Nc2c(Cl)cc3cc(C(=O)N4CCN5CCC[C@H]5C4)oc3c2C2(CCCCC2)N1 [Example 265, 2′-[(8aS)-octahydropyrrolo[1,2-a]piperazine-2-carbonyl]-5′-chloro-7′,8′-dihydro-6′H-spiro[cyclohexane-1,9′-furo[2,3-f]quinazoline]-7′-one]	0.01 to 0.1
O=C1Nc2c(Cl)cc3nc(C(=O)NC4CCCOC4)oc3c2C2(CCCCC2)N1 (centres unmarked) [Example 201, 5-Chloro-N-(oxan-3-yl)-7-oxo-7,8-dihydro-6H-spiro[[1,3]oxazolo[5,4-f]quinazoline-9,1′-cyclohexane]-2-carboxamide]	0.01 to 0.1
O=C1Nc2c(Cl)cc3nc(CN4CCN5CCC[C@@H]5C4)oc3c2C2(CCCCC2)N1 [Example 128, 2-[(8aR)-octahydropyrrolo[1,2-a]piperazin-2-ylmethyl]-5-chloro-7,8-dihydro-6H-spiro[[1,3]oxazolo[5,4-f]quinazoline-9,1′-cyclohexane]-7-one]	0.01 to 0.1
CN(CCC#N)C(=O)c1cc2cc(Cl)c3c(c2o1)C1(CCCCC1)NC(=O)N3 [Example 267, 5′-Chloro-N-(2-cyanoethyl)-N-methyl-7′-oxo-7′,8′-dihydro-6′H-spiro[cyclohexane-1,9′-furo[2,3-f]quinazoline]-2′-carboxamide]	0.01 to 0.1
O=C1Nc2c(Cl)cc3nc(CNCC4CCCCO4)oc3c2C2(CCCCC2)N1 (centres unmarked) [Example 105, 5-Chloro-2-{[(oxan-2-ylmethyl)amino]methyl}-7,8-dihydro-6H-spiro[[1,3]oxazolo[5,4-f]quinazoline-9,1′-cyclohexane]-7-one]	0.01 to 0.1
CC(C)CCNC(=O)c1cc2cc(Cl)c3c(c2o1)C1(CCCCC1)NC(=O)N3 [Example 417, 5′-Chloro-N-(3-methylbutyl)-7′-oxo-7′,8′-dihydro-6′H-spiro[cyclohexane-1,9′-furo[2,3-f]quinazoline]-2′-carboxamide]	0.01 to 0.1
CC1CCN(C(=O)c2cc3cc(Cl)c4c(c3o2)C2(CCCCC2)NC(=O)N4)CC1 [Example 435, 5′-Chloro-2′-(4-methylpiperidine-1-carbonyl)-7′,8′-dihydro-6′H-spiro[cyclohexane-1,9′-furo[2,3-f]quinazoline]-7′-one]	0.1 to 1
O=C1Nc2c(Cl)cc3nc(CN4CCN(C5COC5)CC4)oc3c2C2(CCCCC2)N1 [Example 50, 5-Chloro-2-{[4-(oxetan-3-yl)piperazin-1-yl]methyl}-7,8-dihydro-6H-spiro[[1,3]oxazolo[5,4-f]quinazoline-9,1′-cyclohexane]-7-one]	0.1 to 1
O=C1Nc2c(Cl)cc3nc(CN[C@H]4CCCOC4)oc3c2C2(CCCCC2)N1 [Example 152, 5-Chloro-2-({[(3S)-oxan-3-yl]amino}methyl)-7,8-dihydro-6H-spiro[[1,3]oxazolo[5,4-f]quinazoline-9,1′-cyclohexane]-7-one]	0.01 to 0.1
O=C1Nc2c(Cl)cc3nc(CN4CCCCC4CO)oc3c2C2(CCCCC2)N1 (centres unmarked) [Example 95, 5-Chloro-2-{[2-(hydroxymethyl)piperidin-1-yl]methyl}-7,8-dihydro-6H-spiro[[1,3]oxazolo[5,4-f]quinazoline-9,1′-cyclohexane]-7-one]	0.1 to 1
O=C1Nc2c(Cl)cc3cc(CNCCn4cccn4)oc3c2C2(CCCCC2)N1 [Example 475, 5′-Chloro-2′-({[2-(1H-pyrazol-1-yl)ethyl]amino}methyl)-7′,8′-dihydro-6′H-spiro[cyclohexane-1,9′-furo[2,3-f]quinazoline]-7′-one]	0.01 to 0.1
CN1CCN(C(=O)c2cc3cc(Cl)c4c(c3o2)C2(CCCCC2)NC(=O)N4)C(c2ccccc2)C1 (centres unmarked) [Example 313, 5′-Chloro-2′-(4-methyl-2-phenylpiperazine-1-carbonyl)-7′,8′-dihydro-6′H-spiro[cyclohexane-1,9′-furo[2,3-f]quinazoline]-7′-one]	0.01 to 0.1
O=C1Nc2c(Cl)cc3nc(CN4CCC(F)(F)CC4)oc3c2C2(CCCCC2)N1 [Example 42, 5-Chloro-2-[(4,4-difluoropiperidin-1-yl)methyl]-7,8-dihydro-6H-spiro[[1,3]oxazolo[5,4-f]quinazoline-9,1′-cyclohexane]-7-one]	0.01 to 0.1

SMILES	IC50 [µM]
CCCCNC(=O)c1cc2cc(Cl)c3c(c2o1)C1(CCCCC1)NC(=O)N3 [Example 393, N-Butyl-5′-Chloro-7′-oxo-7′,8′-dihydro-6′H-spiro[cyclohexane-1,9′-furo[2,3-f]quinazoline]-2′-carboxamide]	0.01 to 0.1
CC(C)N1CCN(C(=O)c2cc3cc(Cl)c4c(c3o2)C2(CCCCC2)NC(=O)N4)CC1=O [Example 333, 5′-Chloro-2′-[3-oxo-4-(propan-2-yl)piperazine-1-carbonyl]-7′,8′-dihydro-6′H-spiro[cyclohexane-1,9′-furo[2,3-f]quinazoline]-7′-one]	0.01 to 0.1
CC(C)CC1CN(Cc2nc3cc(Cl)c4c(c3o2)C2(CCCCC2)NC(=O)N4)CCO1 (centres unmarked) [Example 99, 5-Chloro-2-{[2-(2-methylpropyl)morpholin-4-yl]methyl}-7,8-dihydro-6H-spiro[[1,3]oxazolo[5,4-f]quinazoline-9,1′-cyclohexane]-7-one]	0.1 to 1
CC(C)(O)[C@@H]1CCN(Cc2nc3cc(Cl)c4c(c3o2)C2(CCCCC2)NC(=O)N4)C1 [Example 120, 5-Chloro-2-{[(3R)-3-(2-hydroxypropan-2-yl)pyrrolidin-1-yl]methyl}-7,8-dihydro-6H-spiro[[1,3]oxazolo[5,4-f]quinazoline-9,1′-cyclohexane]-7-one]	0.1 to 1
CN(C)Cc1nc2cc(Cl)c3c(c2o1)C1(CCCCC1)NC(=O)N3 [Example 31, 5-Chloro-2-[(dimethylamino)methyl]-7,8-dihydro-6H-spiro[[1,3]oxazolo[5,4-f]quinazoline-9,1′-cyclohexane]-7-one]	0.01 to 0.1
O=C1Nc2c(Cl)cc3nc(CNC4CCCOC4)oc3c2C2(CCCCC2)N1 (centres unmarked) [Example 133, 5-Chloro-2-{[(oxan-3-yl)amino]methyl}-7,8-dihydro-6H-spiro[[1,3]oxazolo[5,4-f]quinazoline-9,1′-cyclohexane]-7-one]	0.01 to 0.1
COc1cccc(CN(C)C(=O)c2cc3cc(Cl)c4c(c3o2)C2(CCCCC2)NC(=O)N4)c1 [Example 286, 5′-Chloro-N-[(3-methoxyphenyl)methyl]-N-methyl-7′-oxo-7′,8′-dihydro-6′H-spiro[cyclohexane-1,9′-furo[2,3-f]quinazoline]-2′-carboxamide]	0.01 to 0.1
CC1(CNCc2nc3cc(Cl)c4c(c3o2)C2(CCCCC2)NC(=O)N4)COC1 [Example 86, 5-Chloro-2-({[(3-methyloxetan-3-yl)methyl]amino}methyl)-7,8-dihydro-6H-spiro[[1,3]oxazolo[5,4-f]quinazoline-9,1′-cyclohexane]-7-one]	0.01 to 0.1
N#CC1CCN(Cc2cc3cc(Cl)c4c(c3o2)C2(CCCCC2)NC(=O)N4)CC1 [Example 472, 1-{5′-Chloro-7′-oxo-7′,8′-dihydro-6′H-spiro[cyclohexane-1,9′-furo[2,3-f]quinazoline]-2′-ylmethyl}piperidine-4-carbonitrile]	0.1 to 1
COC1CCN(Cc2nc3cc(Cl)c4c(c3o2)C2(CCCCC2)NC(=O)N4)CC1 [Example 112, 5-Chloro-2-[(4-methoxypiperidin-1-yl)methyl]-7,8-dihydro-6H-spiro[[1,3]oxazolo[5,4-f]quinazoline-9,1′-cyclohexane]-7-one]	0.1 to 1
O=C1Nc2c(Cl)cc3cc(CN4CCN(C5COC5)CC4)oc3c2C2(CCCCC2)N1 [Example 542, 5′-Chloro-2′-{[4-(oxetan-3-yl)piperazin-1-yl]methyl}-7′,8′-dihydro-6′H-spiro[cyclohexane-1,9′-furo[2,3-f]quinazoline]-7′-one]	0.1 to 1
CN(C)C(=O)N1CCN(Cc2cc3cc(Cl)c4c(c3o2)C2(CCCCC2)NC(=O)N4)CC1 [Example 519, 4-{5′-Chloro-7′-oxo-7′,8′-dihydro-6′H-spiro[cyclohexane-1,9′-furo[2,3-f]quinazoline]-2′-ylmethyl}-N,N-dimethylpiperazine-1-carboxamide]	0.01 to 0.1
O=C1Nc2c(Cl)cc3nc(CNCc4ncccn4)oc3c2C2(CCCCC2)N1 [Example 60, 5-Chloro-2-{[(pyrimidin-2-ylmethyl)amino]methyl}-7,8-dihydro-6H-spiro[[1,3]oxazolo[5,4-f]quinazoline-9,1′-cyclohexane]-7-one]	0.01 to 0.1
CC(C)OC1CCN(Cc2nc3cc(Cl)c4c(c3o2)C2(CCCCC2)NC(=O)N4)CC1 [Example 72, 5-Chloro-2-{[4-(propan-2-yloxy)piperidin-1-yl]methyl}-7,8-dihydro-6H-spiro[[1,3]oxazolo[5,4-f]quinazoline-9,1′-cyclohexane]-7-one]	0.1 to 1
CN1CCC(N(C)C(=O)c2cc3cc(Cl)c4c(c3o2)C2(CCCCC2)NC(=O)N4)C1 (centres unmarked) [Example 276, 5′-Chloro-N-methyl-N-(1-methylpyrrolidin-3-yl)-7′-oxo-7′,8′-dihydro-6′H-spiro[cyclohexane-1,9′-furo[2,3-f]quinazoline]-2′-carboxamide]	0.1 to 1
COC(=O)C1CCN(Cc2nc3cc(Cl)c4c(c3o2)C2(CCCCC2)NC(=O)N4)CC1 [Example 66, Methyl 1-{5-chloro-7-oxo-7,8-dihydro-6H-spiro[[1,3]oxazolo[5,4-f]quinazoline-9,1′-cyclohexane]-2-ylmethyl}piperidine-4-carboxylate]	0.01 to 0.1
